Assay results reported in the supplement of paper PMC11417369.
The list shows a part of the results.

These sequences were tested on PfAP2-HC AP2 domain (GST-tagged) (assay: gcPBM binding intensity (ln(normalized median fluorescence intensity)); higher = stronger DNA binding).
How it was run: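 Binding intensity is the highest Masliner-normalised natural-log median intensity over replicate spots in either probe orientation. To obtain it, GST-tagged P. falciparum DNA-binding domains made in E. coli were incubated for 1 h on an Agilent 4 × 180k array of primer-extended double-stranded 36-bp intergenic genomic probes plus negative controls. Detection used Alexa488 anti-GST antibody with scanning at 488 nm.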

Going from “TTTTATGTTTTTTTTATAAATATTAAAATTCTATAT [CACACA_negctrl_site1477]” to “ATATTGTTATATGTTTGTACATATTTTTTATATTTT [XGTACX_site6834]”, the “gcPBM binding intensity (ln)” value rises from 9.43 to 9.86.

Going from “AATGTTAAAAATGAAAGTACATGGAATTTATTATTT [XGTACX_site4095]” to “TCATGTTTTTAATATTGTACTCTCATTTTATATATC [XGTACX_site8412]”, the “gcPBM binding intensity (ln)” value rises from 9.62 to 9.68.

First: ATATTTACTCACGTCTTGCACTGAGCAAGCATTATA
Second: AGCTATTAATTTATTACATGCAAGATTAAAAGACTA [TGCATGCA_site281]
The “gcPBM binding intensity (ln)” value of the first is higher: 9.67 for the first, 9.49 for the second.

Compared with GGTATTTATGGACGCGTGCACACACATATGAACAAA, “TTTTGATTTTTTTATTGTACCCATAAACATATAATT [XGTACX_site5202]” is lower in “gcPBM binding intensity (ln)” value: 9.98 for the first, 9.66 for the second.

First: TATTTTTGAAGTTGCACACACAAAAATAAAAAGTAT [CACACA_site418]
Second: TACAAACAATTAAACAAACACACATATACATGTATA [CACACA_site2061]
The “gcPBM binding intensity (ln)” value of the first is lower: 9.88 for the first, 9.95 for the second.

Compared with “ATTTTTTATGAAAACATAAAAAAATGAGATAACCAT [CACACA_negctrl_site894]”, “AAAAAAAAAAAAAAATCACACATTGGTTAAATATTA [CACACA_site5344]” is lower in “gcPBM binding intensity (ln)” value: 9.58 for the first, 9.52 for the second.

Compared with “CTATCAAATAATAGCAAACACACAAAAAATAAAAAA [CACACA_site4147]”, “ATTCATACATGCACACGTACATATTTAAATATAAAA [XGTACX_site8388]” is lower in “gcPBM binding intensity (ln)” value: 9.93 for the first, 9.7 for the second.

Compared with “TATTTATACATACGTACACACAAATATTAAAATATA [CACACA_site7004]”, “ATATATTATAAATGTAGTACCGTTACATAGTCATAG [XGTACX_site390]” is lower in “gcPBM binding intensity (ln)” value: 9.85 for the first, 9.79 for the second.

First: CACACCACCAACAAAAGTACATACATATATATATAT [XGTACX_site5781]
Second: TATATATTGCCCTTCACACACACACCCATATATATA [CACACA_site2493]
The “gcPBM binding intensity (ln)” value of the first is lower: 9.82 for the first, 10.3 for the second.

First: ACTACGAGTCGTAGAGTGCAGTCTGGAGAAAAGTAC [GTGCAC_site9769]
Second: ATCAAGCACGAACACACACACACACGCACGCCCACA [CACACA_site6308]
The “gcPBM binding intensity (ln)” value of the first is lower: 9.63 for the first, 11.4 for the second.

Compared with “ATTTTTTTTTTTTGTACATACCACATATACAAAACA [CACACA_negctrl_site1240]”, “TTTTTTTTTTTCTCCATACACACTTGATAAAACTTT [CACACA_site615]” is lower in “gcPBM binding intensity (ln)” value: 9.68 for the first, 9.57 for the second.

Compared with “TAATTGATTCTTCACCGTACTCACACATATATATAT [XGTACX_site6530]”, “ATACATATATGTGTGTGTACATAAATGTATATATTT [XGTACX_site6242]” is higher in “gcPBM binding intensity (ln)” value: 9.89 for the first, 10.3 for the second.

Compared with “GCATGGAACCATATATGTACATATATAAATAAATAA [XGTACX_site4996]”, “GTATCTTTCAAAATATGTACATATATATATGTGTGT [XGTACX_site3512]” is higher in “gcPBM binding intensity (ln)” value: 9.66 for the first, 10.1 for the second.

First: AACTTTATTCCTAATTGTACACATATATATATATAT [XGTACX_site6823]
Second: AATAGTAAAAGATATACACACACCAAAAAATAGAAT [CACACA_site2289]
The “gcPBM binding intensity (ln)” value of the first is lower: 10 for the first, 11.6 for the second.

First: ATTATACATATGTATGCACACATACATACACATATA [CACACA_site9155]
Second: ATATATATATGTTTATGTACTTATAATAATATAACT [XGTACX_site4828]
The “gcPBM binding intensity (ln)” value of the first is higher: 9.96 for the first, 9.62 for the second.

First: TAATTTAAGAAAAAATGTACACAAATATAATAATAG [XGTACX_site8317]
Second: AAAAAAAATATCTATGCATGTAATATTATGATATTG [TGCATGCA_site546]
The “gcPBM binding intensity (ln)” value of the first is higher: 9.67 for the first, 9.58 for the second.

Going from “TAACATTAAAATAAAAGTACTTAATAATATTAAGTA [XGTACX_site5920]” to “TTAATAATAAATGAAAGTACATATAAAAAAAAAAAA [XGTACX_site717]”, the “gcPBM binding intensity (ln)” value falls from 9.64 to 9.61.

Compared with “CGTATAACATATGACACACACACATACATACACAAA [CACACA_site1803]”, “GATTTATATAATTCAAGTACTAAAAATATTTTTAAT [XGTACX_site5285]” is lower in “gcPBM binding intensity (ln)” value: 10.4 for the first, 9.43 for the second.

First: TAAGACTATTAAAAAATTGAGTACATGAACTGTTCA [GTGCAC_negctrl_site670]
Second: AAATATAAAAAATATACACACATATATAATATATAT [CACACA_site2963]
The “gcPBM binding intensity (ln)” value of the first is lower: 9.41 for the first, 9.9 for the second.

Going from “TGTATATTTGATTCATGTACATATTTTATTTTAACT [XGTACX_site5169]” to “CAGATTTATTCAAACGCATGCTGTTTTAAAATAAAA [TGCATGCA_site874]”, the “gcPBM binding intensity (ln)” value falls from 9.72 to 9.29.

Going from “CCTATATAATTATAATGTACTTGTAAAAAATATAAC [XGTACX_site2864]” to “AATGTATTTAAACTGACACACAAAAAAAATAAAATA [CACACA_site2138]”, the “gcPBM binding intensity (ln)” value rises from 9.45 to 9.93.

Going from “ATATTGTAAGTAAACACACACACATCTATAGGTATA [CACACA_site6462]” to ATCCGCTGCCTTTTGGTGCAGAACATAATCATGTAA, the “gcPBM binding intensity (ln)” value falls from 10.6 to 9.38.

Going from “TTTAAAATATTAAAATGTACATATATATATATATAT [XGTACX_site6784]” to “TATATATATATATATACACACATACATATATATATT [CACACA_site8185]”, the “gcPBM binding intensity (ln)” value rises from 9.59 to 9.79.

Compared with “ACATAAATATATTTTTCACACATCCTTAGTTATGAA [CACACA_site5179]”, “AAATAACAAAAGAAGGTGCTCATAAAAATTCATACA [GTGCAC_site9864]” is higher in “gcPBM binding intensity (ln)” value: 9.63 for the first, 9.65 for the second.

First: CATTTACCCTTATTAACACACAAAATAAAATACGCT [CACACA_site7249]
Second: AACAATAGTAAAAATACACACATTAAACTTCATTTC [CACACA_site2126]
The “gcPBM binding intensity (ln)” value of the first is lower: 9.81 for the first, 9.97 for the second.

Compared with “ATACAATGATATATACATATATATATATATATATAT [TGCATGCA_negctrl_site359]”, “AAATTATAAAAAAAAAAAAAAAAAAAAAAAAAAAAA [XGTACX_negctrl_site501]” is lower in “gcPBM binding intensity (ln)” value: 9.89 for the first, 8.72 for the second.

Going from “AAAAAAAAAAAAAAAAAAAAAAAAAAAAAAAAAAAA [CACACA_negctrl_site204]” to AAAAAAATTACGCAAGTGCATATAATTTAACAAAAA, the “gcPBM binding intensity (ln)” value rises from 9.14 to 9.64.

Going from “ATATATATATATCACGCACACACGAATTTTAAATAT [CACACA_site3131]” to “AACATTTATATAAAAGAACACACATATAAAATATTA [CACACA_site9199]”, the “gcPBM binding intensity (ln)” value falls from 10.1 to 9.82.

“ATCGCGAAGTAGCATTCACACACAGCAAAATATATA [CACACA_site9162]” was tested, and the “gcPBM binding intensity (ln)” value was 10.
